Reference: the supplement of paper PMC11417369
This is one part of the list.

Test system: PF3D7_0420300 AP2 domain 1 (GST-tagged)
Test: gcPBM binding intensity (ln(normalized median fluorescence intensity)); higher = stronger DNA binding
Procedure, shortened: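 An Agilent 4 × 180k array carrying primer-extended double-stranded 36-bp intergenic genomic probes and negative controls received GST-tagged P. falciparum DNA-binding domains expressed in E. coli, about 25 μg on average, for 1 h. The binding buffer contained 1× PBS, 1% milk, 0.2 mg/ml BSA, 0.5% salmon testes DNA and 0.03% Triton X-100. Binding intensity is the top Masliner-normalised natural-log median intensity across replicate spots of either probe orientation, read after Alexa488 anti-GST antibody staining and a 488 nm scan.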

Sequence	gcPBM binding intensity (ln)
TTCTTGTATATTCATAGTACATATAATGTCGTGTTA [XGTACX_site8991]	9.24
AATTTAAAAAATAATTGTACAAAAAAAAAAAATCAG [XGTACX_site4576]	9.37
GTTAATATTTTTGGGGGTACTTAAAAAAAAAAAAAA [XGTACX_site1477]	9.22
TTACATACAATTGGTGTGCACATATATATATATATA	9.44
GAATATTAATTCAAGTGTACAAATATATATATAATT [XGTACX_site5103]	9.23
CAAAAGGATAGGCACACACACACACCGATATATATA [CACACA_site8685]	10.2
TATGTTTCTATATATACATGCAAGAAGAAATGTACT [TGCATGCA_site891]	9.13
AAAAAAAAAAAAGAAAAATATATATATAAATAAATA [GTGCAC_negctrl_site569]	9.12
ATATGTACAAATTATACACACATGTACAATTATATA [CACACA_site1253]	9.49
ATGTCACAATTTTTCACACACAAAATTTATATACAT [CACACA_site2030]	9.72
AAATAAAGAAATGCAAGTACATACTAAACTAATCCA [XGTACX_site1209]	9.55
TTGTTTTATACATAGTGTACATATAAAAATTTTTTT [XGTACX_site7549]	9.07
ATATATATTATAATCTGTACATAAATATATAATAAA [XGTACX_site5425]	9.1
TCTTAAATTATGATAAAATATAATAAATAAATAAAT [CACACA_negctrl_site1520]	8.98
ATTTTCCCTAGAATATGTACACATAGTAAATATTAT [XGTACX_site7499]	9.24
CAGATAAATAAACACACACACACATATATATATATA [CACACA_site9311]	9.93
ATATATAAATATGAAACACACATTCTATTTAATTCG [CACACA_site1450]	9.3
CTTAAATCCATAATATGTACTTAAAAAGAAAAAATA [XGTACX_site4765]	8.91
ATAATTATACAAAAGCGTACACGATATAAATCTACG [XGTACX_site8115]	9.41
AGACAATTTTTTAGTACACACATATAGATATATAAA [CACACA_site6832]	9.46
TTATAAAAAAAAAAAAAAAAAAAAACCAATATAATA [CACACA_negctrl_site968]	9.22
TTTATTCTAAAATATTAAAAATGATTTGTTTTTTCA [CACACA_negctrl_site1751]	8.78

Sequence	gcPBM binding intensity (ln)
ATATGAACATTAAAAAAGTAAGGTATTCTCCCCTCT [CACACA_negctrl_site1299]	9.2
GTATTATAAAAAGGAAGTACATATATACATATTATA [XGTACX_site1271]	9.26
AATTATACTCACGTTACACACACACTAGATATATAT [CACACA_site6133]	10.1
TTTTTTTTTTTTTTTTGTACATATATATAAAAAATA [XGTACX_site2772]	8.49
TAATATTACATTTATTGTACTTTGTTTTTATTTTAT [XGTACX_site1605]	9.48
CCCACAATGGTTTATATACACACTGTTGCAAATTCT [CACACA_site3066]	9.45
ATTGAAAAAATACAATGTACATAGTAATACAAAGAA [XGTACX_site4142]	9.56
TAATACTTAATGAACACATGCACATATACATAGTAT [TGCATGCA_site496]	9.36
TGTTTCTAAGAATTTACACACAAAATATTTCTACAT [CACACA_site7846]	9.55
AAAAAAAAAAATTGCACACAAAAAAAAAAAAAAAAA [CACACA_site2073]	8.92
TTAAAAATTAAAAGTAGTACATATAATATAAACATT [XGTACX_site424]	9.31
ATACACGTTTTACAATGTACAGAAAGTATACATAAT [XGTACX_site4585]	9.36
TTTAATCAACAAAATCTACACACTAATATGAAATAT [CACACA_site9250]	9.36
TATTATATATATAAATGTACATATTATTTTTCTTTT [XGTACX_site8670]	9.24
GTATTTTTTTTCTTTTGTACATATATATAAAGAATA [XGTACX_site4569]	9.27
AAGAATTTTCGATTTGCACACATTTGTAAAATAAAA [CACACA_site2354]	9.19
CATATCAAAAAAAAATGTACACGTATATACAATACA [XGTACX_site2660]	9.38
TTTTAAAATAAAAAAATAAAAAAAGGGGAAAAAAAA [CACACA_negctrl_site847]	9.39
ATATACTTATATATTGCACACATCTAATATTTTGAA [CACACA_site3165]	9.42
TATAATATGTTTGATGGTACACGTAAACACCTTGCA [XGTACX_site1643]	9.15
ATAACTAAATTATATTGTACAAAATAATTATATATT [XGTACX_site1188]	9.19
TTCATTAAAACGAATACACACATAAATATATAAAAG [CACACA_site4824]	9.62
